Experimental data from article PMC11804575, “BRAF^Δβ3-αC in-frame deletion mutants differ in their dimerization propensity, HSP90 dependence, and druggability” (Science Advances, 2023).

Target: the molecule itself
Assay: co-IP; HA- and Myc-tagged BRAF coexpressed in HEK293T; lysed 48 h after transfection in NLB (50 mM tris/HCl pH 7.5, 1% Triton X-100, 137 mM NaCl); anti-HA antibody and Protein G-Sepharose, 4°C overnight, eight washes; immunoblot for Myc-BRAF and HSP90, quantified per precipitated HA-BRAF

B1: BRAF^ΔLNVTAP>F R509H (natural protein, human)
chain: MAALSGGGGGGAEPGQALFNGDMEPEAGAGAGAAASSAADPAIPEEVWNIKQMIKLTQEHIEALLDKFGGEHNPPSIYLEAYEEYTSKLDALQQREQQLLESLGNGTDFSVSSSASMDTVTSSSSSSLSVLPSSLSVFQNPTDVARSNPK[left out - about 80 residues]ENVPLTTHNFVRKTFFTLAFCDFCRKLLFQGFRCQTCGYKFHQRCSTEVPLMCVNYDQLDLLFVSKFFEHHPIPQEEASLAETALTSGSSPSAPASDSIGPQILTSPSPSKSIPIPQPFRPADEDHRNQFGQRDRSSSAPNVHINTIEPVNIDDLIRDQGFRGDGGSTTGLSATPPASLPGSLTNVKALQKSPGPQRERKSSSSSEDRNRMKTLGRRDSSDDWEIPDGQITVGQRIGSGSFGTVYKGKWHGDVAVKMFTPQQLQAFKNEVGVLRKTHHVNILLFMGYSTKPQLAIVTQWCEGSSLYHHLHIIETKFEMIKLIDIARQTAQGMDYLHAKSIIHRDLKSNNIFLHEDLTVKIGDFGLATVKSRWSGSHQFEQLSGSILWMAPEVIRMQDKNPYSFQSDVYAFGIVLYELMTGQLPYSNINNRDQIIFMVGRGYLSPDLSKVRSNCPKAMKRLMAECLKKKRDERPLFPQILASIELLARSLPKIHRSASEPSLNRAGFQTEDFSLYACASPKTPIQAGGYGAFPVH
notes: human BRAF ΔLNVTAP>F with the dimer interface mutation R509H; Residue numbers count on wild-type BRAF; The second co-expressed copy carried a C-terminal Myc tag instead of HA; source: HEK293T, transiently transfected, in lysate; not shown: HA, N-terminal, kept
- fold homodimerization capacity over BRAF^V600E: 5 fold
